# According to article PMC8365426:
# Chains of the proteins cited; added tags and fusions are not shown. Residues count along the entry.
# UniProt O35449: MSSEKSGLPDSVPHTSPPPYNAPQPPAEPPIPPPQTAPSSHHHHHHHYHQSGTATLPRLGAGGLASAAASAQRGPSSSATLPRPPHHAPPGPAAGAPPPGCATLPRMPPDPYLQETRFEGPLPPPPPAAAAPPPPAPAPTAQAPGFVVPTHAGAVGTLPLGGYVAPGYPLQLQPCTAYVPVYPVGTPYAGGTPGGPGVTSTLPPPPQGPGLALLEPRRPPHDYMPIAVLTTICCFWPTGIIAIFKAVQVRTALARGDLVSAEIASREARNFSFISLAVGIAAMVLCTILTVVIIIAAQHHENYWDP
# UniProt A2ANU3: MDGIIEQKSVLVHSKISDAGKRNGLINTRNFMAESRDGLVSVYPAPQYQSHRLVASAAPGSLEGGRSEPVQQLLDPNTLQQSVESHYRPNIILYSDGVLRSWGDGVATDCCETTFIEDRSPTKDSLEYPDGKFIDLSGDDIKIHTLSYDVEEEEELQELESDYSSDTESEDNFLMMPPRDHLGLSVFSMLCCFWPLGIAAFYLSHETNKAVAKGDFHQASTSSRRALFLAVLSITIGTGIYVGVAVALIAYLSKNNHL
# UniProt P19493, residues 21-902: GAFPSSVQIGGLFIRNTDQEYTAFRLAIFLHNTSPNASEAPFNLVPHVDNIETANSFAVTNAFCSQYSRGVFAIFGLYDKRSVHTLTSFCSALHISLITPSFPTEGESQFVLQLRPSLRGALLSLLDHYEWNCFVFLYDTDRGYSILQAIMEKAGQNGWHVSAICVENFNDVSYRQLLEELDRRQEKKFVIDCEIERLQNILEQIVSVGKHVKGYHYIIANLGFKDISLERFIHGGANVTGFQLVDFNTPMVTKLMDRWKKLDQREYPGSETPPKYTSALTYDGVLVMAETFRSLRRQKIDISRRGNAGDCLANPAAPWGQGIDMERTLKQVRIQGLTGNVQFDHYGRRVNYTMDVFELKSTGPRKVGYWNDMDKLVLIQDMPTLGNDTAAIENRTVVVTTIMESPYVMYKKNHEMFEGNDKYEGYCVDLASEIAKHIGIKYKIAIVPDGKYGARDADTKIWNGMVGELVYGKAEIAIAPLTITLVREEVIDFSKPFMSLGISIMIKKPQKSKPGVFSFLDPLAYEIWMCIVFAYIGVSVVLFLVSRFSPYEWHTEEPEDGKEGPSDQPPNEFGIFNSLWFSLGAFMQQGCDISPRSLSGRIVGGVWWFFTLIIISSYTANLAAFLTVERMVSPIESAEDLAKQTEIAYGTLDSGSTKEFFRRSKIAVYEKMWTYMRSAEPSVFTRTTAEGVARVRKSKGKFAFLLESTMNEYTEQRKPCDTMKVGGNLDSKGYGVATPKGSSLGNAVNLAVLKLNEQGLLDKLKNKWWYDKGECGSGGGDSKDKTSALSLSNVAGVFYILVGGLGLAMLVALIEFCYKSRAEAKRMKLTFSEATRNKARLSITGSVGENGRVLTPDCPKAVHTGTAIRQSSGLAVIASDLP
# UniProt P19492, residues 23-888: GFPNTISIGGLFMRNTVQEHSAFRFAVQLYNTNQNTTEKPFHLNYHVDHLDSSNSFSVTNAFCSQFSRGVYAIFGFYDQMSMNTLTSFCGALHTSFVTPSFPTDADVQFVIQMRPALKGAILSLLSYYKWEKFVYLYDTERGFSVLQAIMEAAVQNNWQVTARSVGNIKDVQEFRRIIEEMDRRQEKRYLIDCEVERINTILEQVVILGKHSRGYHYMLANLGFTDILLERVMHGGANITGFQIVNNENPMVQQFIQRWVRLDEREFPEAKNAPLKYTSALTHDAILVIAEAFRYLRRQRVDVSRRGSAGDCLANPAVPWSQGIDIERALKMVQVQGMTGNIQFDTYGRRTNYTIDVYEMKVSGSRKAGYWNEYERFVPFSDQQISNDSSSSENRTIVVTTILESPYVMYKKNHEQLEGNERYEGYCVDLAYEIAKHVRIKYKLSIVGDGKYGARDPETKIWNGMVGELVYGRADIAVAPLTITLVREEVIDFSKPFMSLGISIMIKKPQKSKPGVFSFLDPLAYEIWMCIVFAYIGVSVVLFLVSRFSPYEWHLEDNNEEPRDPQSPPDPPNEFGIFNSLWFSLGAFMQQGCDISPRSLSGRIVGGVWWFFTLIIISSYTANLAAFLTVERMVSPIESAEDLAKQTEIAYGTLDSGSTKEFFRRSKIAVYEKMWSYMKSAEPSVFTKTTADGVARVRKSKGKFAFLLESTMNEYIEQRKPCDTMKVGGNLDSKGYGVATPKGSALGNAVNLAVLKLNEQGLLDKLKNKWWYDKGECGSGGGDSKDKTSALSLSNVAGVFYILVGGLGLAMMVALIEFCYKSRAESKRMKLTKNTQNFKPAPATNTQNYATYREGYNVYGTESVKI
# UniProt P19491, residues 22-883: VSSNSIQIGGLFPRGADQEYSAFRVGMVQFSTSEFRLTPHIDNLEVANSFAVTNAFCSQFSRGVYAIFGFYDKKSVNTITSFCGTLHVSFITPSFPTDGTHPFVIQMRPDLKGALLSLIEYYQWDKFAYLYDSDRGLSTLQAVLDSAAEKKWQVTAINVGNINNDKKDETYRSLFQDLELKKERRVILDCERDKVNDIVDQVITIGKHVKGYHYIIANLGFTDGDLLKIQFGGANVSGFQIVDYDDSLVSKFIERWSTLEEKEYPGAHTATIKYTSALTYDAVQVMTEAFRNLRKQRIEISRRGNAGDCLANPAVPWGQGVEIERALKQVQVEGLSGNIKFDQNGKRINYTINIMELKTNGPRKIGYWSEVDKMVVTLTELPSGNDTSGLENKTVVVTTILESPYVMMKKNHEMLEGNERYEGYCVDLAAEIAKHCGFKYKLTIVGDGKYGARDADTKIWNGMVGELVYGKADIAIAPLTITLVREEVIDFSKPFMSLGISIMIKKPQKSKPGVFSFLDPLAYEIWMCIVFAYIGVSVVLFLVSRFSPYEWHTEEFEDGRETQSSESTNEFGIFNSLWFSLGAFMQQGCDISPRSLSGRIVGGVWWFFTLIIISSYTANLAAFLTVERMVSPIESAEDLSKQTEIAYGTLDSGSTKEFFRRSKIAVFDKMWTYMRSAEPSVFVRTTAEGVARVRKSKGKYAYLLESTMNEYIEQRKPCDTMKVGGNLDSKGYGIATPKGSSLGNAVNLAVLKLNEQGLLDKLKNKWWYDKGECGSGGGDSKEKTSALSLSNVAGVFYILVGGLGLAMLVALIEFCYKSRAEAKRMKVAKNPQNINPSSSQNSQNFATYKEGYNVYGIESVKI
# Results are given in words; binding and its absence hold for the method and conditions named. In cells and extracts the contact can be indirect. Some binding calls cover weakened binding; strength is not graded here. For part of these data: Tags and fused reporters may be left off the sequences shown.
# What was measured:
# [1] = biological target: HA-PRRT1 (proline-rich transmembrane protein 1, HA tag at the N-terminus) (mouse) (UniProt O35449); assay: co-IP; anti-HA antibody on lysates of co-transfected HEK293 cells; lysis buffer 150 mM NaCl, 20 mM Hepes pH 7.4, 0.1 mM EDTA, 2 mM CaCl2, 2 mM MgCl2, 1% Triton-X100; antibody overnight at 4°C, protein A or G agarose; immunoblot with anti-Flag / anti-HA
# [2] = biological target: GFP-tagged DspC2 (SynDIG1) (mouse) (UniProt A2ANU3); assay: co-IP; lysates of HEK293 cells expressing GFP-tagged dispanin family members and AMPAR subunits (Supplementary Figure 1); antibody of the immunoprecipitation not given
# [3] = biological target: T1, GFP-tagged PRRT2 (mouse) (UniProt E9PUL5); assay: as above
# T1 sequence: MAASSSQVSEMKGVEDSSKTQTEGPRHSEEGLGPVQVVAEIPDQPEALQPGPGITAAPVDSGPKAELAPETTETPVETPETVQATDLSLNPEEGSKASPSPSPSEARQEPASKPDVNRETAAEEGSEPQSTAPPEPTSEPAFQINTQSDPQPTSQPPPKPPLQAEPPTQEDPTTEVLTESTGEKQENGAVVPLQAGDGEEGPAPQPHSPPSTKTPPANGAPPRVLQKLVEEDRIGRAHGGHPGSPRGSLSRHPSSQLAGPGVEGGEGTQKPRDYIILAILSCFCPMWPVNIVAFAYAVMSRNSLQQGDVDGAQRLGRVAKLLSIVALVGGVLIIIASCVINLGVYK
# [4] = biological target: T2, GFP-tagged DspB1 (Tucs5) (mouse) (UniProt Q8C838); assay: as above
# T2 sequence: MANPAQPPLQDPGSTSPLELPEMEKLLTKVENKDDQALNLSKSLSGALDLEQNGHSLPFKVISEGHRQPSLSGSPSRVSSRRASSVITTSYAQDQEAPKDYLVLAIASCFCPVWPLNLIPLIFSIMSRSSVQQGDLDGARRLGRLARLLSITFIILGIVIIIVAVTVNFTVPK
# [5] = biological target: GFP-PRRT1 full-length (FL) (mouse) (UniProt O35449); assay: as above
Substance,binding [1],binding [2],binding [3],binding [4],binding [5]
Flag-GluA4 (from UniProt P19493 21-902) (receptor),binds,,,,
Flag-GluA3 (from UniProt P19492 23-888) (receptor),,binds,no binding,no binding,
Flag-PP2B-Aα (protein phosphatase 2B catalytic subunit Aα) (from UniProt P63328 1-521) (enzyme),binds,,,,
Flag-GluA2 (from UniProt P19491 22-883) (receptor),binds,binds,no binding,no binding,binds
Flag-Hippocalcin (Hlcn) (from UniProt P84075 1-193),no binding,,,,
Flag-PP2B-Aβ (protein phosphatase 2B catalytic subunit Aβ) (from UniProt P48453 1-525) (enzyme),binds,,,,
